Experimental data taken from article PMC3927447 (Developmental cell, 2014).

Target: mouse 6His-BuGZ co-expressed with Bub3 in Sf9 cells (mouse, UniProt Q9JMD0 1-495)
Assay: SEC

Sequence of UniProt Q9JMD0 (Q9JMD0 whole entry): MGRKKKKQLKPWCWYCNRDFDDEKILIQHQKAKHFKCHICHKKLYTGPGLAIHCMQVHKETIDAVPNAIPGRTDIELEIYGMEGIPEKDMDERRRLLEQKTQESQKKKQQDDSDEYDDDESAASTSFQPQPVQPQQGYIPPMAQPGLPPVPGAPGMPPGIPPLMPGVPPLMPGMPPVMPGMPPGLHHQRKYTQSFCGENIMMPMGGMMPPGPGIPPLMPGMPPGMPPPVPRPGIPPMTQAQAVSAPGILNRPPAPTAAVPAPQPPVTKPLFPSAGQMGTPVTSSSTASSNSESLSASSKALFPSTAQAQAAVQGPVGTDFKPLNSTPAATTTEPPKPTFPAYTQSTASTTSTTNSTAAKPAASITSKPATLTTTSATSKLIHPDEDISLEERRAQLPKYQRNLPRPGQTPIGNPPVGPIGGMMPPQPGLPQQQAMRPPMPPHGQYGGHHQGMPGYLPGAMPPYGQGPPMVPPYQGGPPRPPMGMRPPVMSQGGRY

stoichiometry N: 1
B1: untagged mouse Bub3 co-expressed with 6His-BuGZ in Sf9 cells (natural protein)
chain: not shown
